{"source": "PubChem BioAssay AID686978", "about": "(National Center for Advancing Translational Sciences (NCATS), 2013)", "note": "Values joined by “and” are separate entries in the source; they are usually repeats but may differ in a detail not shown here. Equal values may be shown once. About 64,000 (15%) of roughly 420,000 compounds were called active. Inconclusive means that the source gave no clear call. Such entries were picked first, then a sample of the others. Calls follow the shape of the dose curve; as a rule, active = well fitted inhibition curve with a large enough effect; inconclusive = small, poorly fitted or top-dose-only effect; inactive = flat fitted curve, though single readings scatter. A potency beside an inconclusive call is a rough fit, not a confirmed value. Potency is read from the fitted curve at half-maximal effect; tags tell the direction and shape of the fitted curve.", "data": [{"assay": "qHTS for Inhibitors of human tyrosyl-DNA phosphodiesterase 1 (TDP1): qHTS in cells in absence of CPT; also: nearly all actives have a fitted effect of over 55% in size", "conditions": "DT40 Tdp1-/- hTDP1 cells, no CPT, ATP luminescence, 48 h; series mostly up to 46.2 µM", "how_it_was_run": "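Growth of hTDP1-complemented DT40 Tdp1-knockout cells is measured by ATP luminescence after at least 48 hr compound exposure at 37 °C, with DMSO substituting for the 20 nM CPT used in the parallel screen.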", "values": [{"compound": "CC(C)(C)N(Cc1ccccc1)C(=O)c1cccs1", "Potency": "inconclusive: 14.6 µM [inhibitor, partial curve]"}, {"compound": "COc1ccccc1N1CCN(C(=O)c2ccc3[nH]c(C)c(C)c3c2)CC1", "Potency": "active: 1.03 µM"}, {"compound": "Cn1cc(CC(=O)NCCN2CCOCC2)c2ccccc21", "Potency": "inconclusive: 29.1 µM [inhibitor, single point]"}, {"compound": "C=CCN1c2ccccc2[C@]23C[C@@H](C(=O)OC)N(C(=O)c4cc(C)oc4C)C2=NC(C(=O)OC)=C(C(=O)OC)[C@H]13", "Potency": "inconclusive: 20.6 µM [inhibitor, single point]"}, {"compound": "Cc1cc2oc(C(=O)N(Cc3ccccc3F)C3CCS(=O)(=O)C3)c(C)c2cc1Cl", "note": "(stereo not drawn)", "Potency": "active: 16.4 µM"}, {"compound": "CC1Cc2ccccc2N1C(=O)COC(=O)Cc1ccc(F)cc1", "note": "(stereo not drawn)", "Potency": "inactive"}, {"compound": "CCOc1[nH]c(/N=C/c2ccco2)c(C#N)c1C#N", "Potency": "inconclusive: 35.5 µM [inhibitor, single point] and inconclusive: 29.1 µM [inhibitor, single point]"}, {"compound": "COc1ccc(CSC(=S)NNc2ccccc2)cc1", "Potency": "active: 18.4 µM"}, {"compound": "O=C(Nc1ccccc1C(=O)Nc1ccccn1)c1ccccc1F", "Potency": "inconclusive: 25.9 µM [inhibitor, single point]"}, {"compound": "CC1CCCN(CCOCCOc2ccc(Br)cc2Cl)C1", "note": "(stereo not drawn)", "Potency": "active: 18.4 µM"}, {"compound": "CCc1nc2c(OCc3ccc(F)c(F)c3)cccn2c1N(C)C(=O)c1ccc(C)cc1", "Potency": "active: 9.2 µM"}, {"compound": "CCCN1CCN(C(=O)C2CCN(c3nnc(C)c4c(C)n(-c5ccc(C)cc5)nc34)CC2)CC1", "Potency": "inconclusive: 29.1 µM [inhibitor, single point]"}, {"compound": "Cc1ccc(C2CC(=O)Nc3cc4c(cc32)OCCO4)cc1", "note": "(stereo not drawn)", "Potency": "inactive"}, {"compound": "COc1cccc(C(O)c2ncc(-c3ccc4ccccc4c3)[nH]2)c1", "note": "(stereo not drawn)", "Potency": "inconclusive: 23.1 µM [inhibitor, single point]"}, {"compound": "O=S1(=O)CCC(SCc2nc3sccn3c2Br)C1", "note": "(stereo not drawn)", "Potency": "inactive"}, {"compound": "O=S1(=O)CCOC[C@H](Cc2ccccc2)N1Cc1cccc(C(F)(F)F)c1", "Potency": "inconclusive: 23.1 µM [inhibitor, single point]"}, {"compound": "CC1Cc2ccccc2N1C(=O)COc1cccc(-n2cnnn2)c1", "note": "(stereo not drawn)", "Potency": "inconclusive: 18.4 µM [inhibitor, single point]"}, {"compound": "Cc1c2c(nc3c(C(=O)NC4CC4)cnn13)CCCC2", "Potency": "inactive"}, {"compound": "CC(C)C(NC(=O)CN1C(=O)c2ccccc2C1=O)c1ccccc1", "note": "(stereo not drawn)", "Potency": "inactive"}, {"compound": "COc1ccc2cc3cc(C(=O)NCCCN4CCc5ccccc5C4)sc3nc2c1", "Potency": "inconclusive: 18.4 µM [inhibitor, single point]"}, {"compound": "CCCCNC1=CC(=O)C(=O)c2ccccc21", "Potency": "active: 20.6 µM"}, {"compound": "CC1(C)CN(c2cccc(C#N)c2)C1=O", "Potency": "inconclusive: 29.1 µM [inhibitor, single point]"}, {"compound": "O=C(C=C1CCN(c2ncc(C(F)(F)F)cc2Cl)CC1)NNC(=O)Nc1ccc(Cl)cc1", "Potency": "inconclusive: 20.6 µM [inhibitor, single point]"}, {"compound": "O=C(CCn1nnnc1CN1CCOCC1)N1CCC(c2ccccc2Cl)C1", "note": "(stereo not drawn)", "Potency": "inactive"}, {"compound": "CC(=O)Nc1sc(C)c(C)c1C(=O)OCC(=O)Nc1ccccc1C(F)(F)F", "Potency": "inconclusive: 16.4 µM [inhibitor, single point]"}, {"compound": "COc1ccc(/C=N/NC(=O)c2cccc([N+](=O)[O-])c2)cc1OC(=O)c1ccc(C)cc1", "Potency": "inconclusive: 29.1 µM [inhibitor, single point]"}, {"compound": "COc1ccc(C(=O)Nc2ccc(-c3nnn(CC(=O)NCc4ccco4)n3)cc2)cc1", "Potency": "inconclusive: 20.6 µM [inhibitor, single point]"}, {"compound": "CC(=O)c1ccc(N2CCN(C(=O)C(=O)c3c(C)[nH]c4ccccc34)CC2)cc1", "Potency": "inconclusive: 18.4 µM [inhibitor, single point]"}, {"compound": "COc1ccc(CC(N)c2csc(Nc3ccc(S(C)(=O)=O)cc3)n2)cc1", "note": "(stereo not drawn)", "Potency": "active: 23.1 µM"}, {"compound": "Cc1noc(C)c1C(=O)N1CCC2(CCN(Cc3ccccc3)CC2)CC1", "Potency": "inactive"}, {"compound": "Cc1cnc(-n2ncc(C(=O)NCc3cccnc3)c2C)nc1-c1ccc(F)cc1", "Potency": "inactive"}, {"compound": "CCCCN1C(=O)C(CC(=O)NCCN2CCOCC2)CC(C(=O)N(C(C)C)C(C)C)=C1C", "note": "(stereo not drawn)", "Potency": "inactive"}, {"compound": "Cc1cc([C@](C)(N)C(=O)O)ccc1P(=O)(O)O", "Potency": "inactive"}, {"compound": "Cc1cccc(-n2ccnc2SCC(=O)Nc2ccc3c(c2)OCCO3)c1", "Potency": "inconclusive: 29.1 µM [inhibitor, single point]"}, {"compound": "CCCS(=O)(=O)N1CCN=C1SCc1cccc(F)c1", "Potency": "inactive"}, {"compound": "CCOC(=O)c1c(N)sc(-c2ccccc2)c1C", "Potency": "inconclusive: 10.3 µM [inhibitor, partial curve]"}, {"compound": "Cc1onc(-c2ccccc2)c1C(=O)OCCOc1cccc(Cl)c1", "Potency": "inconclusive: 18.4 µM [inhibitor, single point]"}, {"compound": "Cc1ccccc1Nc1c(-c2ccc(Cl)s2)nc2cccc(C)n12", "Potency": "inconclusive: 14.6 µM [inhibitor, partial curve]"}, {"compound": "CCC(=O)NCCc1nc2cc(NC(=O)c3ccco3)ccc2n1C", "Potency": "inactive"}, {"compound": "CC[C@@H](C)[C@@H](C(=O)N1CCN(C(=O)OC(C)(C)C)CC1)n1cc(CCCN=C(NC(=O)OC(C)(C)C)NC(=O)OC(C)(C)C)nn1", "Potency": "inconclusive: 25.9 µM [inhibitor, single point]"}, {"compound": "O=[N+]([O-])c1ccc(/C=N/NC(=S)Nc2ccc(Cl)cc2Cl)s1", "Potency": "active: 5.17 µM"}, {"compound": "Brc1ccc(CN2CCN(Cc3c[nH]c4ccccc34)CC2)cc1", "Potency": "active: 9.2 µM"}, {"compound": "Cc1ccc(S(=O)(=O)CCOC(=O)CNC(=O)OCc2ccccc2)cc1", "Potency": "inactive"}, {"compound": "CCOC(=O)C1=CN(CC)CCC1=O", "Potency": "inactive"}, {"compound": "COc1ccc(Cl)cc1C(=O)NNC(=S)NC1CCCC1", "Potency": "inconclusive: 18.4 µM [inhibitor, single point]"}, {"compound": "C[C@@H](CN1C2=NC[C@H](C)N2C[C@H]1Cc1ccc(O)cc1)NC(=O)CCC1CCCCC1", "Potency": "active: 13 µM"}, {"compound": "CCn1c(SCC(=O)NCc2ccc3c(c2)OCO3)nc2c(c1=O)SCC2", "Potency": "inactive"}, {"compound": "COc1ccc(S(=O)(=O)c2c(C)c(NS(=O)(=O)c3ccccc3)cc(C)c2O)cc1", "Potency": "inconclusive: 18.4 µM [inhibitor, single point]"}]}]}
